# Laboratory results published in the supplement of paper PMC4604168 (melanoma cell lines).
# This is one part of the list. Single values are uncertain, as repeats are few or missing.
# Tested on: WM115
# Assay: cell count relative to DMSO control; melanoma cells; higher = more viable cells
# Conditions: library dose: standard library concentration; 72 h
# 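Note: cells treated in 1,536-well plates, then fixed and DAPI-stained, with nuclei counted from automated high-throughput microscope images.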
row,SMILES,cell count
1,"Cn1cnc2c(F)c(Nc3ccc(Br)cc3Cl)c(C(=O)NOCCO)cc21 [selumetinib] + COc1ccc(COc2ccc(Cc3cnc(N)nc3N)cc2OC)cc1 [GW2580] (first compound 0.075 µM, partner dose 5 µM)",63.3%
2,"CCN(CC)CCNC(=O)c1c(C)[nH]c(/C=C2\C(=O)Nc3ccc(F)cc32)c1C [sunitinib] + Oc1cc(-c2nc(-c3ccccc3)[nH]c2-c2ccncc2)ccc1Cl [L779450] (first compound 2 µM, partner dose 1 µM)",49.3%
3,"Cn1cnc2c(F)c(Nc3ccc(Br)cc3Cl)c(C(=O)NOCCO)cc21 [selumetinib] + CCN(CC)CCCCNc1ncc2cc(-c3cc(OC)cc(OC)c3)c(NC(=O)NC(C)(C)C)nc2n1 [PD173074] (first compound 0.075 µM, partner dose 0.5 µM)",73.3%
4,"COc1cc([C@@H]2c3cc4c(cc3[C@@H](O[C@@H]3O[C@@H]5CO[C@@H](C)O[C@H]5[C@H](O)[C@H]3O)[C@H]3COC(=O)[C@H]23)OCO4)cc(OC)c1O [etoposide] + CCCCCCCCCCCC1=C(O)C(=O)C=C(O)C1=O [Embelin] (first compound 0.1 µM, partner dose 6 µM)",77.9%
5,"CCN(CC)CCNC(=O)c1c(C)[nH]c(/C=C2\C(=O)Nc3ccc(F)cc32)c1C [sunitinib] + Cc1cc([N+](=O)[O-])ccc1NS(=O)(=O)c1cc(Cl)ccc1Cl [FH535] (first compound 2 µM, partner dose 5 µM)",51.9%
6,"C[C@]1(O)C[C@@H](c2nc(-c3ccc4ccc(-c5ccccc5)nc4c3)c3c(N)nccn32)C1 + COC(=O)c1sccc1S(=O)(=O)Nc1ccc(Nc2ccccc2)cc1OC [GSK0660] (first compound 2 µM, partner dose 5 µM)",105%
7,"COc1cc([C@@H]2c3cc4c(cc3[C@@H](O[C@@H]3O[C@@H]5CO[C@@H](C)O[C@H]5[C@H](O)[C@H]3O)[C@H]3COC(=O)[C@H]23)OCO4)cc(OC)c1O [etoposide] + c1cc(-c2cnn3cc(-c4ccc(OCCN5CCCCC5)cc4)cnc23)ccn1 [Dorsomorphin] (first compound 0.1 µM, partner dose 2 µM)",60.8%
8,"C[C@]1(O)C[C@@H](c2nc(-c3ccc4ccc(-c5ccccc5)nc4c3)c3c(N)nccn32)C1 + CCN(CC)CCCCNc1ncc2cc(-c3cc(OC)cc(OC)c3)c(NC(=O)NC(C)(C)C)nc2n1 [PD173074] (first compound 2 µM, partner dose 0.5 µM)",114%
9,"COc1cc([C@@H]2c3cc4c(cc3[C@@H](O[C@@H]3O[C@@H]5CO[C@@H](C)O[C@H]5[C@H](O)[C@H]3O)[C@H]3COC(=O)[C@H]23)OCO4)cc(OC)c1O [etoposide] + CCN(CC)CCCCNc1ncc2cc(-c3cc(OC)cc(OC)c3)c(NC(=O)NC(C)(C)C)nc2n1 [PD173074] (first compound 0.1 µM, partner dose 0.5 µM)",92.2%
10,"COc1cc([C@@H]2c3cc4c(cc3[C@@H](O[C@@H]3O[C@@H]5CO[C@@H](C)O[C@H]5[C@H](O)[C@H]3O)[C@H]3COC(=O)[C@H]23)OCO4)cc(OC)c1O [etoposide] + O=C(Nc1ccccc1)c1cc([N+](=O)[O-])ccc1Cl [GW9662] (first compound 0.1 µM, partner dose 10 µM)",72%
11,"COc1cc([C@@H]2c3cc4c(cc3[C@@H](O[C@@H]3O[C@@H]5CO[C@@H](C)O[C@H]5[C@H](O)[C@H]3O)[C@H]3COC(=O)[C@H]23)OCO4)cc(OC)c1O [etoposide] + COc1ccc2c(c1)CCC1C2CCC2(C)C(NCCCCCCN3C(=O)C=CC3=O)CCC12 [U73122] (first compound 0.1 µM, partner dose 2 µM)",79.5%
12,"Cn1cnc2c(F)c(Nc3ccc(Br)cc3Cl)c(C(=O)NOCCO)cc21 [selumetinib] + O=C(O)C(=O)Nc1sc2c(c1C(=O)O)CCNC2 [TCS401] (first compound 0.075 µM, partner dose 8.33333 µM)",70.9%
13,"C[C@]1(O)C[C@@H](c2nc(-c3ccc4ccc(-c5ccccc5)nc4c3)c3c(N)nccn32)C1 + Oc1nc(-c2ccc(C(F)(F)F)cc2)nc2c1CSCC2 [XAV939] (first compound 2 µM, partner dose 10 µM)",126%
14,"COc1cc([C@@H]2c3cc4c(cc3[C@@H](O[C@@H]3O[C@@H]5CO[C@@H](C)O[C@H]5[C@H](O)[C@H]3O)[C@H]3COC(=O)[C@H]23)OCO4)cc(OC)c1O [etoposide] + Oc1cc(-c2nc(-c3ccccc3)[nH]c2-c2ccncc2)ccc1Cl [L779450] (first compound 0.1 µM, partner dose 1 µM)",58.4%
15,"C[C@]1(O)C[C@@H](c2nc(-c3ccc4ccc(-c5ccccc5)nc4c3)c3c(N)nccn32)C1 + CCCCCCCCCCCC1=C(O)C(=O)C=C(O)C1=O [Embelin] (first compound 2 µM, partner dose 6 µM)",94.3%
16,"CCN(CC)CCNC(=O)c1c(C)[nH]c(/C=C2\C(=O)Nc3ccc(F)cc32)c1C [sunitinib] + CCCCCCCCCCCC1=C(O)C(=O)C=C(O)C1=O [Embelin] (first compound 2 µM, partner dose 6 µM)",56.7%
17,"C[C@]1(O)C[C@@H](c2nc(-c3ccc4ccc(-c5ccccc5)nc4c3)c3c(N)nccn32)C1 + O=C(Nc1ccccc1)c1cc([N+](=O)[O-])ccc1Cl [GW9662] (first compound 2 µM, partner dose 10 µM)",84.1%
18,"COc1cc([C@@H]2c3cc4c(cc3[C@@H](O[C@@H]3O[C@@H]5CO[C@@H](C)O[C@H]5[C@H](O)[C@H]3O)[C@H]3COC(=O)[C@H]23)OCO4)cc(OC)c1O [etoposide] + CCc1ccc(CCOc2ccc(CC3SC(=O)NC3=O)cc2)nc1 [pioglitazone] (first compound 0.1 µM, partner dose 10 µM)",73.3%
19,"C[C@]1(O)C[C@@H](c2nc(-c3ccc4ccc(-c5ccccc5)nc4c3)c3c(N)nccn32)C1 + O=c1cc(-c2cccc3c2Sc2ccccc2S3)oc(N2CCOCC2)c1 [KU55933] (first compound 2 µM, partner dose 5 µM)",114%
20,"C[C@]1(O)C[C@@H](c2nc(-c3ccc4ccc(-c5ccccc5)nc4c3)c3c(N)nccn32)C1 + O=C1NC(=O)/C(=C/c2ccc(-c3ccc(F)cc3O)o2)S1 [AS252424] (first compound 2 µM, partner dose 5 µM)",99.4%
21,"Cn1cnc2c(F)c(Nc3ccc(Br)cc3Cl)c(C(=O)NOCCO)cc21 [selumetinib] + CCCCCCCCCCCC1=C(O)C(=O)C=C(O)C1=O [Embelin] (first compound 0.075 µM, partner dose 6 µM)",59.8%
22,"CCN(CC)CCNC(=O)c1c(C)[nH]c(/C=C2\C(=O)Nc3ccc(F)cc32)c1C [sunitinib] + O=C(O)C(=O)Nc1sc2c(c1C(=O)O)CCNC2 [TCS401] (first compound 2 µM, partner dose 8.33333 µM)",71.3%
23,"C[C@]1(O)C[C@@H](c2nc(-c3ccc4ccc(-c5ccccc5)nc4c3)c3c(N)nccn32)C1 + Oc1cc(-c2nc(-c3ccccc3)[nH]c2-c2ccncc2)ccc1Cl [L779450] (first compound 2 µM, partner dose 1 µM)",64.3%
24,"COc1cc([C@@H]2c3cc4c(cc3[C@@H](O[C@@H]3O[C@@H]5CO[C@@H](C)O[C@H]5[C@H](O)[C@H]3O)[C@H]3COC(=O)[C@H]23)OCO4)cc(OC)c1O [etoposide] + COC(=O)c1sccc1S(=O)(=O)Nc1ccc(Nc2ccccc2)cc1OC [GSK0660] (first compound 0.1 µM, partner dose 5 µM)",79.5%
